Here are results for 44 sequences from the supplement of paper PMC11417369.

The list shows a part of the results.

The assay has as its system PfSIP2 AP2 domain 1 (GST-tagged). As to the kind of experiment: gcPBM binding intensity (ln(normalized median fluorescence intensity)); higher = stronger DNA binding. The method in brief:
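Each value is the highest Masliner-normalised natural-log median intensity across replicate spots of either orientation of a probe. The probes were primer-extended double-stranded 36-bp intergenic genomic sequences on an Agilent 4 × 180k array, alongside negative controls, exposed for 1 h to GST-tagged P. falciparum DNA-binding domains expressed in E. coli. Bound protein was picked up with Alexa488 anti-GST antibody and scanned at 488 nm.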
For “AACAAAAAAAAAAAAAAAAAAAAAAAAAAAAAAATG [CACACA_negctrl_site1127]”, the “gcPBM binding intensity (ln)” value was found to be 7.01.

On to TATATATATATGTGCGTGCACGTTACCTTGCTGTTT, for which the “gcPBM binding intensity (ln)” value worked out at 9.48.

For the sequence “TTTCCAAATACAACTACACACAAACAAAAGTTATAT [CACACA_site6544]”, the “gcPBM binding intensity (ln)” value amounted to 7.06.

Take “AAATTTAACAACTTCAAACACACAATATATATATAT [CACACA_site2092]”: the “gcPBM binding intensity (ln)” value stood at 8.91.

With “ATGAATACAAAATTATACAAAATTATCAAAAGTATG [CACACA_negctrl_site1453]”, the “gcPBM binding intensity (ln)” value was determined as 6.82.

Take “TGCAGTCTGGAGAAACGTACATAGTATCTGGTAGCT [XGTACX_site4937]”: the “gcPBM binding intensity (ln)” value was 6.77.

Regarding “ATACATAAATATATATGTACATATATATATATATAT [XGTACX_site1055]”, the “gcPBM binding intensity (ln)” value was determined as 9.29.

For “AAAATATATTTAAATTGTACACGTTACCATAACAAT [XGTACX_site2598]”, the “gcPBM binding intensity (ln)” value was determined as 6.95.

Turning to “CTTTTTATTTAGAACACACACAAAAAAAAAAAAAAA [CACACA_site1761]”, the “gcPBM binding intensity (ln)” value was found to be 7.04.

With “ATATATTAATAATTTTGTACGCATTTCCTTTTTATT [XGTACX_site1638]”, the “gcPBM binding intensity (ln)” value was determined as 7.26.

Take “GAAAATATTTCCGTATGTACTTATTTTAGTCTACTA [XGTACX_site471]”: the “gcPBM binding intensity (ln)” value amounted to 7.09.

For the sequence “AAAAAAAAAAAAAAATGTACAAATAAAGAAATATGA [XGTACX_site4371]”, the “gcPBM binding intensity (ln)” value stood at 7.31.

In the case of “AATATTTTCTTGTACGCATGCACATCCAAATTATAT [TGCATGCA_site873]”, the “gcPBM binding intensity (ln)” value was 7.46.

Regarding “TGACCTGTTCAGGTAACACACATATAAACACATACA [CACACA_site4186]”, the “gcPBM binding intensity (ln)” value was determined as 7.03.

For “AGGTTCTTTTTAAATGGTACACATAATTTGAAGATA [XGTACX_site400]”, the “gcPBM binding intensity (ln)” value stood at 7.22.

As for “GTGTATAGAATGGTTTCTTTTAAGGTTTTTATTTTT [CACACA_negctrl_site564]”, the “gcPBM binding intensity (ln)” value was found to be 7.24.

In the case of “TCTTAAAAGGGGAATGGAATGGAGAAAATGAAATAA [GTGCAC_negctrl_site30]”, the “gcPBM binding intensity (ln)” value came out at 6.96.

For the sequence “ATACCCACTTAAAATACACACACACCGAAAAAAAAA [CACACA_site8867]”, the “gcPBM binding intensity (ln)” value is 7.35.

As to “ATGGCATAAATATATGCACACACAAAAAAAAAAAAA [CACACA_site7902]”, the “gcPBM binding intensity (ln)” value stood at 7.06.

For the sequence “TTTCTTTTTTTTTGAAGTACATAAAAATATAAAAAA [XGTACX_site311]”, the “gcPBM binding intensity (ln)” value came to 7.22.

For “ATATATATATGTATGTATATATATATATATATGTTT [CACACA_negctrl_site248]”, the “gcPBM binding intensity (ln)” value was 9.26.

In the case of “AATATTATAAAATATTGTACTTAAAAAATTATTAAA [XGTACX_site2469]”, the “gcPBM binding intensity (ln)” value is 6.7.

As for “TAAATTTTTTCTTTTTGTACATATTTTAAAAATGTT [XGTACX_site7526]”, the “gcPBM binding intensity (ln)” value is 6.9.

As to “AAAAAGAAAAAGAGCACACAAAAATATTTAACCTTT [CACACA_site2747]”, the “gcPBM binding intensity (ln)” value turned out to be 6.62.

For “GTTATATATGATGGAAGCACTTGGAAGAGGGAAATA [CACACA_negctrl_site1831]”, the “gcPBM binding intensity (ln)” value amounted to 7.26.

With “GATAAATATTTAATATGTACATATATTATATATATA [XGTACX_site117]”, the “gcPBM binding intensity (ln)” value is 8.02.

Turning to “AAAAATAAAAAAATAAAAAATAAAAAAATAAAAAAT [CACACA_negctrl_site1425]”, the “gcPBM binding intensity (ln)” value was determined as 6.79.

Turning to “TATATACACACCGTGTGTACATATACATTAACTGAA [XGTACX_site7120]”, the “gcPBM binding intensity (ln)” value was 6.98.

Turning to “ATTAAAGTTATAAATTCACACATGTAAATGTATTTA [CACACA_site5279]”, the “gcPBM binding intensity (ln)” value stood at 6.81.

With “ATATATTATATATGCGCACACACGAATTTTTTTTTT [CACACA_site2393]”, the “gcPBM binding intensity (ln)” value amounted to 7.97.

As to “TACACTAATGACAGTTGTACTTTTATTCGATAGAAT [XGTACX_site738]”, the “gcPBM binding intensity (ln)” value came to 7.05.

Take “TATATATATATAATATGTACATATATACATGCCTTG [XGTACX_site2791]”: the “gcPBM binding intensity (ln)” value came out at 8.88.

With “ACTTTTTTTTTGTGTGTGCACTCGATTATATACATA [GTGCAC_site9846]”, the “gcPBM binding intensity (ln)” value was 10.3.

Turning to “TCGAAAATGACGAATGGTACAGTATGTATAAAAATA [XGTACX_site1258]”, the “gcPBM binding intensity (ln)” value stood at 7.05.

With “TATATATACATACGTACACACAAATATTAAAATATA [CACACA_site1951]”, the “gcPBM binding intensity (ln)” value stood at 7.41.

For the sequence “TCAAAATTGCTTTGTTGTACTAATAAAATTTATTAC [XGTACX_site1121]”, the “gcPBM binding intensity (ln)” value worked out at 6.99.

With “TATCTGTAAACATATTCACACACATAAATTCGCATA [CACACA_site8557]”, the “gcPBM binding intensity (ln)” value came to 7.01.

With “TCAAAAGAAATAAAAACATGCATAAAAGTAAAAATA [TGCATGCA_site832]”, the “gcPBM binding intensity (ln)” value came to 7.06.

As for “TGTTTTTCATAGTGCACACATAACCAAAAATAGTAT [CACACA_site3150]”, the “gcPBM binding intensity (ln)” value stood at 10.8.

Take “ACGTATATTTTTACATGTACATATGTAAAAAATTTT [XGTACX_site4587]”: the “gcPBM binding intensity (ln)” value is 7.15.

“TTATGATAATTTTGCACACACTTAGGAAAAATTATG [CACACA_site4949]”: the “gcPBM binding intensity (ln)” value came out at 7.5.

As for “AAATAATATATATACACACACACATATATATATACA [CACACA_site554]”, the “gcPBM binding intensity (ln)” value stood at 7.16.

For “TTTTATTTATCATACACACACAGAAAAAAAAAAAAA [CACACA_site158]”, the “gcPBM binding intensity (ln)” value turned out to be 7.14.

Regarding “GAATGTTTATTATATGCATGTTATATATATGAATAT [TGCATGCA_site4]”, the “gcPBM binding intensity (ln)” value was found to be 7.02.
